Experimental data: the supplement of paper PMC11417369
The other results are listed elsewhere or left out.

The sequences below were run on PfSIP2 AP2 domain 1 (GST-tagged) (assay: gcPBM binding intensity (ln(normalized median fluorescence intensity)); higher = stronger DNA binding).
How it was run: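 The highest Masliner-normalised natural-log median intensity across replicate spots of either probe orientation is reported as binding intensity. GST-tagged P. falciparum DNA-binding domains expressed in E. coli were applied for 1 h to an Agilent 4 × 180k array of primer-extended double-stranded 36-bp intergenic genomic probes plus negative controls, and bound protein was detected with Alexa488 anti-GST antibody and scanned at 488 nm.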

Compared with “AACAAATAAGATAAATGACTTAACAAAAGAAAAAAG [CACACA_negctrl_site1409]”, “GTAAAAAATATGAATACACACATAAAGGAAATAACA [CACACA_site1997]” is higher in “gcPBM binding intensity (ln)” value: 6.77 for the first, 7.17 for the second.

First: AAAAAAAAAAAATTCACACACATATAAAAAATTAAG [CACACA_site728]
Second: AAAAAAAAAAAAAAAAGTACAGACGTCAAAAAAAAA [XGTACX_site4817]
The “gcPBM binding intensity (ln)” value of the first is lower: 6.9 for the first, 8.09 for the second.

Compared with “TAATATATAAGTATTTGTACATATTCATTCATCTAT [XGTACX_site2935]”, “TTTTTTTTTTTTTTTTTTTTTTTTGGGTCCCATACA [CACACA_negctrl_site913]” is higher in “gcPBM binding intensity (ln)” value: 6.78 for the first, 7.22 for the second.

First: CACTATCAATATATATGTACATATATATATATATAT [XGTACX_site7854]
Second: GTCACATTGTTATATTGTACAAATGTCGTTCTTTTT [XGTACX_site8098]
The “gcPBM binding intensity (ln)” value of the first is higher: 9.16 for the first, 6.96 for the second.

First: TAAATATATAAATACACACAAACATACATATATATA [CACACA_site4050]
Second: ATATAAAAATATATTAATATAAATAAATGGACATAT [XGTACX_negctrl_site488]
The “gcPBM binding intensity (ln)” value of the first is higher: 7.55 for the first, 7.17 for the second.

First: CTTATACATTATTAACGTACATGTTATATGAATAAC [XGTACX_site5752]
Second: AACATTATAGGACACACACACACATATATATATATA [CACACA_site4721]
The “gcPBM binding intensity (ln)” value of the first is lower: 6.99 for the first, 9.36 for the second.

Going from “TTTTTTTTTTTTTTTTTTTTTTTTAAATGCTTCTAA [TGCATGCA_negctrl_site253]” to “CATTATGTTGTAAATACACACATACCTATACATACA [CACACA_site6485]”, the “gcPBM binding intensity (ln)” value rises from 7.08 to 7.1.

Going from “TATTTATTTATATTTACACACATTCATATAAATTCA [CACACA_site7628]” to “TCTGAGAATGATAAAAAAAAAAAAAATGAAAAATTA [CACACA_negctrl_site1478]”, the “gcPBM binding intensity (ln)” value falls from 7.09 to 6.59.

Compared with “ACGATATTTTTGGTGACACACATATATATATATATA [CACACA_site126]”, “TTTTTTTTTTTATCTGCACACCCTTTTGTGAATATT [CACACA_site789]” is lower in “gcPBM binding intensity (ln)” value: 9.49 for the first, 7.51 for the second.

First: AATGAGCGTTAAAAATGTACAGAAAATTGGAATTAT [XGTACX_site5743]
Second: AAAACTTTTAGTTATACACACAACATAGAAAATATT [CACACA_site6287]
The “gcPBM binding intensity (ln)” value of the first is lower: 6.85 for the first, 6.94 for the second.

Compared with “AACAATCAAATAGACACACACACACCCAAACATAAA [CACACA_site2757]”, “CTCCTACAAATATGTAGTACATTCAAAATAAATACC [XGTACX_site8207]” is higher in “gcPBM binding intensity (ln)” value: 7.04 for the first, 7.64 for the second.

Going from “ATGCAATAAATATACACACACAAATCTATATTTATA [CACACA_site7179]” to “AATTATTATATATATATATATATATATTTATATATT [GTGCAC_negctrl_site387]”, the “gcPBM binding intensity (ln)” value rises from 7.02 to 7.53.

Compared with “AGTTCAAGGATTAAGACACACATATAAATAAATAAA [CACACA_site3662]”, “AAATAAAATAATTATAATACTAAAAATAATACATAA [GTGCAC_negctrl_site106]” is higher in “gcPBM binding intensity (ln)” value: 6.98 for the first, 7.01 for the second.

Going from “TTTTTTTTGTAGAATTGTACTTATAAAATATATATA [XGTACX_site2116]” to “AAAAAATGGATGATCACACACTTCATAAAAGTTGCA [CACACA_site7109]”, the “gcPBM binding intensity (ln)” value falls from 7.13 to 6.65.

Compared with “CATTTTTTAAGCATCACACACGAAAGAACAAAGTGG [CACACA_site4755]”, “TGGAAAATTATAAGGTGTACATATAAGCTATTATAT [XGTACX_site118]” is lower in “gcPBM binding intensity (ln)” value: 7.42 for the first, 7.01 for the second.

Going from “TTTTTTTTTTTAAGGTGTACAATAAAAATTTATGCA [XGTACX_site8860]” to “CATATATAAAATATATGTACTTATAGAACATAATTT [XGTACX_site1936]”, the “gcPBM binding intensity (ln)” value falls from 7 to 6.75.

First: AGGAATAAATAATTAACACACACAATCTTTTTTTTT [CACACA_site9027]
Second: TAATAAGTATAAAATAGTACATATAAATATATCAAA [XGTACX_site8834]
The “gcPBM binding intensity (ln)” value of the first is lower: 6.78 for the first, 6.85 for the second.

Going from “ACTTTTTCACATAAAAATGATCCGATTAGTAATAAT [XGTACX_negctrl_site248]” to “ATAATATTAGTAAACACACTCAAATTATATATGATA [CACACA_site5721]”, the “gcPBM binding intensity (ln)” value falls from 7.08 to 6.88.

Compared with “AAATAAAAAAACTATTGTACTGAATACAAATTAAAT [XGTACX_site3793]”, “AGTATACATTCATTTTGTACTCAATGATTTGATAAC [XGTACX_site6787]” is higher in “gcPBM binding intensity (ln)” value: 6.86 for the first, 6.97 for the second.

First: ATAATTATATTCCATACACACATATATTTAAAGGTT [CACACA_site2957]
Second: TAAATAAATACATACACACACATACATATATATATA [CACACA_site3129]
The “gcPBM binding intensity (ln)” value of the first is lower: 6.96 for the first, 9.32 for the second.

Going from “TTATTGTTTATTAAATGTACAGATTCGTTAAAATTA [XGTACX_site3041]” to “ACAACAATATGGAATTGTACATATATATATAAATAT [XGTACX_site3139]”, the “gcPBM binding intensity (ln)” value falls from 7.27 to 7.06.

First: TATTTTTTTGTGTTTGGTACACACGTTATAAAAAAT [XGTACX_site2655]
Second: CTAGCAAATACATACACACACACACCCATACATATA [CACACA_site3496]
The “gcPBM binding intensity (ln)” value of the first is higher: 7.36 for the first, 7.1 for the second.

Going from “TACACAAAACATAAAAGTACATAATAATAAAGTTAA [XGTACX_site8872]” to “GAACAAATAAAAAGGAGTACAATCAAATCTACGTAT [XGTACX_site343]”, the “gcPBM binding intensity (ln)” value falls from 7.12 to 7.01.

Going from “TTATAATAAATATGAAGTACTATAAATATGGTATAT [XGTACX_site5448]” to “CACTAAAATGGACACACACACACACCGATATATATA [CACACA_site6139]”, the “gcPBM binding intensity (ln)” value rises from 7.04 to 7.33.

Going from “ATCGCATAAAGACAAGAACACACATATATATTGTAG [CACACA_site9229]” to “AATAAATATAGGAATACACACAATATAAATGTATTG [CACACA_site3366]”, the “gcPBM binding intensity (ln)” value falls from 7.07 to 6.91.

First: ATTTGGCATAAACACACACACACACCCACCCACATA [CACACA_site8096]
Second: TTTTTATTGAGAACAGTGCAAATAACAAAAAAAAAA
The “gcPBM binding intensity (ln)” value of the first is lower: 7.11 for the first, 8.56 for the second.

Compared with “AAAAAGAAGATGCAAACATGCACACAGAAAAAAAAA [TGCATGCA_site375]”, “AAAAAAAAAAAAATTACACACATACAGATAATAATA [CACACA_site5244]” is lower in “gcPBM binding intensity (ln)” value: 7.94 for the first, 7.03 for the second.

First: TTTTTTTTTTGAATATGTACTTAAAAAAATTTTTTT [XGTACX_site3851]
Second: CTATTATAAAAATGATGTACACTTATATATACATAT [XGTACX_site6087]
The “gcPBM binding intensity (ln)” value of the first is lower: 6.89 for the first, 7.19 for the second.
